Binding signal data for 22 molecules are collected here from publication PMC12136788.

Sequences and labels used below:
T1: UNK ZnF1-3 (human, UniProt Q9C0B0 31-174)
T1 sequence: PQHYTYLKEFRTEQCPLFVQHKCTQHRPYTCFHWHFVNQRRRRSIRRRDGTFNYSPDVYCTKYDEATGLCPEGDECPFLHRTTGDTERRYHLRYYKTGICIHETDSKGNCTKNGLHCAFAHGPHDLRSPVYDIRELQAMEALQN

B1: 60527691_60527811_2217_CDS_ENSG00000081913_ENST00000262719|human|control|control (ssRNA)
RNA: GGGAGUUCUACAGUCCGACGAUCGGCAGCUGGAAGGCUAGGGUUCUGCCUUAGGAAGUUUUGUUUUAAAUUGAGAUGAGUGAGGUCUUGGCUGUAGAAGAGGUUGGCAGGCAGAUGUUCCAGGCUACAACACGAGAGGUCCACCAACAGAGGAUUGAGCAUCA
B2: chr4:21667751:21667752:+_ENSMUSG00000028252_ENSMUST00000108240|mus_mus|FALSE|FALSE (ssRNA)
RNA: GGGAGUUCUACAGUCCGACGAUCUUCUAGUAUAUGAUUCAUCCUGUAAGGAAAUUCCUUUGGAAAAGCAUAUGAAAAUCUAGUUUUUAAUACAGAAGUAGUAGCAGCAAUCAAUCUUGUAUUUGAGACAACACCAAAUUCCUCCAACAGAGGAUUGAGCAUCA
B3: chr14:45599971:45599972:-_ENSG00000100442_ENST00000396062|hu_hu|FALSE|FALSE (ssRNA)
RNA: GGGAGUUCUACAGUCCGACGAUCAUAGGCUGUAACCAAGUGGUCCUUGUUAGCUGUCUUGGCCACAUUUUUAAUGUUUCCUAAUAAUUUAUGUUCUGCAAGAAACGAAUCUGAACCGUGUUCCUGCAGAAACUUGAUAAUGUCCAACAGAGGAUUGAGCAUCA
B4: 111947740_111948246_1497_CDS_ENSG00000204842_ENST00000535949|human|control|control (ssRNA)
RNA: GGGAGUUCUACAGUCCGACGAUCAAUAUUUUCUUUAUUCCCUGCAGGAGAGUUCUGCCUCUGAUCUUGAAGCCUGGAAUCUUUAGCCUCACUAGAAGGGGUAACAGCUCUGUUCGAUGCAGGACUAGCAGGCGUAGGAGAUGCCAACAGAGGAUUGAGCAUCA
B5: chr15:98780418:98780419:-_ENSMUSG00000072235_ENSMUST00000097014|mus_mus|FALSE|FALSE (ssRNA)
RNA: GGGAGUUCUACAGUCCGACGAUCAAAGCACACAUUGCCACAUACAAAUUAACUGAUCAGACCACAACUUUCUGUGUUGGAACACAAUAAACAUCCCUGUGGAAGCAGCACCUUGUGACAUUUAAUUUAGUAUUCCUCUCCUUCCAACAGAGGAUUGAGCAUCA
B6: 6283536_6283656_2427_3pUTR_ENSG00000116237_ENST00000343813|human|control|control (ssRNA)
RNA: GGGAGUUCUACAGUCCGACGAUCAUUAAGCCAUGAAAUCUAGAAAUAAGUCAUAUUUCUGAGUUGAUAAAAUGCUUUUCUGAACAUACAUUUUAGGUAUCUGGCACAAUUAACCAAAUGUCUGCCCAUUUUUGUGUAGCUUUCCAACAGAGGAUUGAGCAUCA
B7: chr14:76904430:76904431:+_ENSMUSG00000022010_ENSMUST00000022587|mus_mus|mus_mus_mus_hu_True|1_58 (ssRNA)
RNA: GGGAGUUCUACAGUCCGACGAUCUGCAGCCAAAAACACCCUCGUGGAAAAAAAGAGGGAACACCAGCAGCCUUGUACAAACUAGAUAAAAUCUUCUGGCUUUCCGCAGCCCAGGGAGAAACAGAAAACGGCAGCCCUCGAGUGCAACAGAGGAUUGAGCAUCA
B8: chr3:69361433:69361434:+_ENSMUSG00000027784_ENSMUST00000029355|mus_mus|FALSE|FALSE (ssRNA)
RNA: GGGAGUUCUACAGUCCGACGAUCCACCCAUAGAUCUAUCUGGGCUACUUGUUACAGCUGCCCAUCUCUUCCCCCUCCCCUAAAAAAAAGCCACAGACAAACAAACUGACAAGGCAGAGGAUAACGUCUAGGGAAAUAUGGCCACAACAGAGGAUUGAGCAUCA
B9: chr12:110929859:110929860:-_ENSG00000111237_ENST00000549970|hu_hu|FALSE|FALSE (ssRNA)
RNA: GGGAGUUCUACAGUCCGACGAUCCUGGCUUUAAGGUUUUUUGUAUUCGAUUCGUUCUACUUUCACAUCAUCUCCAAUUAGCUGAUACACAUAGGUGACCACUGUAGAAGCCUGGAUAUCCAUCAACACAAAUGAUGGAAUAAUCAACAGAGGAUUGAGCAUCA
B10: chr2:65315729:65315730:-_ENSG00000138069_ENST00000409751|hu_mus|FALSE|FALSE (ssRNA)
RNA: GGGAGUUCUACAGUCCGACGAUCAACAUUGGACUUCUCGGCACCACCAGCUGUAGCUCCAGGACCCAUUCGCUUUUUAAUCUCAGCUGCCAUCGUCAUGAAAGACUGUUCUACAUUCGUUGCGUUCUUAGCACUGGUUUCCAACAACAGAGGAUUGAGCAUCA
B11: chr14:57521792:57521793:+_ENSMUSG00000021945_ENSMUST00000022511|mus_hu|FALSE|FALSE (ssRNA)
RNA: GGGAGUUCUACAGUCCGACGAUCGGAAGGAGUAAUUUUGGAAUCAUUUCCUUGUAGUUCUUCAUUUUUUGAUGAUGUAAAUGUUAUGGUUCUUUGAUCAGCUACCACUGGUACAGAAGGUGGGGGAGGUUGUACAGGUUCGAUCAACAGAGGAUUGAGCAUCA
B12: 84692430_84692550_306_3pUTR_ENSMUSG00000036766_ENSMUST00000049126|mouse|control|control (ssRNA)
RNA: GGGAGUUCUACAGUCCGACGAUCGCAGCUGCGGGAGCCCGUGGUUCCCCGGGCAACCGCGGGCGGGGCCGGGGGCGGGGCCCACGGAGGCUGGGCUCCCGGCUGGAGGACCCGGGAUGGGAACCCUUCUGCUCCGCGUCUCAGCAACAGAGGAUUGAGCAUCA
B13: chr8:8618132:8618133:-_ENSMUSG00000001300_ENSMUST00000001319|mus_mus|FALSE|FALSE (ssRNA)
RNA: GGGAGUUCUACAGUCCGACGAUCCUCCAAAUAAGGGGACAGUUGGUAGAUUGUCAUUUUCUGCACCAGACACAAAACAGACGCACAGGACACUUCUCAAUGGGUUGCAGGUAACUCAACUCUUCAUCAAUUCAUCCGAUUCUUCAACAGAGGAUUGAGCAUCA
B14: 155541402_155541522_531_ncRNA_ENSMUSG00000041936_ENSMUST00000154494|mouse|control|control (ssRNA)
RNA: GGGAGUUCUACAGUCCGACGAUCACUCGAAGCCAGCGGUUGGUGUUGACCUUCACAGUGGAGCGCAGCACAACUGGCUGGGAGCCUAGGUCAUAGCUCAGUUGUAGGUGCCCAUCCACAAUGGCCAGAGCCAUGUAGUCUGCACAACAGAGGAUUGAGCAUCA
B15: chr2:202488911:202488912:-_ENSG00000155755_ENST00000286196|hu_mus|hu_hu_hu_mus_False|48_98 (ssRNA)
RNA: GGGAGUUCUACAGUCCGACGAUCAUUGAAACAUUUUCAUAAUAUUGCAGUAGCAUUUCAGCAUUAUGUAACAAAAGCUCAAUUGUAAAUACACAUGUCUUAUAAAAAUACACUUAAAAACACGAGUGGGGAGCGCAGGCGCCACAACAGAGGAUUGAGCAUCA
B16: chr14:34224135:34224136:-_ENSMUSG00000021936_ENSMUST00000111945|mus_mus|FALSE|FALSE (ssRNA)
RNA: GGGAGUUCUACAGUCCGACGAUCCUUUAAAUUCUGGUAUCGUUUUAGGACUGUGAAUGUAGAAUCUCCAAUCUCUACACUAUAAAAAUUGUUGUCACGUUUGCUUCUGCUCAUGAUGGCAAGCAAUUAGUCUAAUGGCUUCAUCAACAGAGGAUUGAGCAUCA
B17: chr4:148554787:148554788:-_ENSMUSG00000063077_ENSMUST00000060537|mus_mus|motif|central (ssRNA)
RNA: GGGAGUUCUACAGUCCGACGAUCCUACAAGUCUUAGCACAAGAAUAAGAAGAGUCAGAGCCAUGGAGAGGGAACAGAGAGCGGGAGAAGUGCAGGGUGAGGAGGGAAAAGUCGUUAAGCCACAGGAUUACAUACAAGAAUAACCAACAGAGGAUUGAGCAUCA
B18: chr17:73774127:73774128:-_ENSG00000132475_ENST00000254810|hu_hu|motif|central (ssRNA)
RNA: GGGAGUUCUACAGUCCGACGAUCAUGACAAGACUCCCCACCACUUGUGAAUGUAAAACAUUUAAUUUAAAAAUGUUGAUACGGCAAUAUAUAAAAUAGCUAUUAUAAAUGCACAUAGUGUAUUCUAUAGCUGCCAGGUUUACUCAACAGAGGAUUGAGCAUCA
B19: chr10:73576327:73576328:-_ENSG00000197746_ENST00000394936|hu_hu|FALSE|FALSE (ssRNA)
RNA: GGGAGUUCUACAGUCCGACGAUCGCCAGAGGCCUAGGAGCUCGCCAUCCAUAUUUAUUUGAAAAGGUCAAAAGGAGCAUCUAUGAGACAAGGGAGGGGUGCAGGCUGAAGCAGCGCCUCAACAGCCAGGGACAUGUAGGCAACCAACAGAGGAUUGAGCAUCA
B20: chr12:70905630:70905631:-_ENSMUSG00000034761_ENSMUST00000110570|mus_mus|FALSE|FALSE (ssRNA)
RNA: GGGAGUUCUACAGUCCGACGAUCUAAGGCAACCCUGUAUGAAACUGUCGUAAAAUAUUCUGUUAAGGGAAGCUGUAUGUGCUAGACCUCCAACACGCCGCCAGGAACCCCCAAAGCACUACUCUGAGAAGGUAAACAACAUUUCAACAGAGGAUUGAGCAUCA
B21: 41682097_41683073_2210_CDS_ENSG00000064042_ENST00000396595|human|control|control (ssRNA)
RNA: GGGAGUUCUACAGUCCGACGAUCUGUCCCACUGCCUUCAGUCAUGGAGGAAGAGGUAGACAGCUGGUCAGCGGAACUUGAAGAAACAGUAAAUGGAACCACAGUGUCUUCAAUUAUCUUACGCUCCUCCUCAUAGUAUCUGCGCAACAGAGGAUUGAGCAUCA
B22: chr16:55990476:55990477:+_ENSMUSG00000022601_ENSMUST00000050248|mus_mus|motif|central (ssRNA)
RNA: GGGAGUUCUACAGUCCGACGAUCUAGUUUAUGUACACUUUCACAAAUUUCUAAAACUUCUGACAUAAAAAGGUGGCGAGCGGAGACGGCUACAUCAGCCAUGCUACAAAAGUCAAAACUUAGUACAGAAGUAUAGGCAAAUUCCAACAGAGGAUUGAGCAUCA

The other results are listed elsewhere or left out.

In the experiment the target is T1, UNK ZnF1-3. Kind of experiment: nsRBNS (natural sequence RNA bind-n-seq); RBNS binding buffer (assumed for nsRBNS): 25 mM Tris pH 7.5, 150 mM KCl, 3 mM MgCl2, 0.01% Triton X-100, 500 ug/ml BSA, 20 U/ml SUPERase-In, 4 C; UNK is unkempt and MSI1 is Musashi-1; names of the RNAs are library labels; protein concentration not given here; high values mean tight binding.
Consider B1, for which the binding signal was 2.89 enrichment R.

As for B2, the binding signal was 1.28 enrichment R.

As for B3, the binding signal amounted to 0.672 enrichment R.

Molecule B4 had a binding signal of 0.936 enrichment R.

In turn, B5 showed a binding signal of 1.87 enrichment R.

B6: the binding signal is 0.666 enrichment R.

B7: the binding signal stood at 1.87 enrichment R.

B8: the binding signal was found to be 2.14 enrichment R.

For B9, the binding signal worked out at 1.12 enrichment R.

In turn, B10 had a binding signal of 1 enrichment R.

B11 registered a binding signal of 1.46 enrichment R.

As to B12, the binding signal was determined as 1.07 enrichment R.

On to B13, for which the binding signal came to 1.06 enrichment R.

Consider B14, for which the binding signal worked out at 0.675 enrichment R.

Consider B15, for which the binding signal is 0.923 enrichment R.

Take B16: the binding signal amounted to 0.665 enrichment R.

B17: the binding signal was 2.41 enrichment R.

As for B18, the binding signal worked out at 1.36 enrichment R.

On to B19, for which the binding signal is 2.54 enrichment R.

B20 gave a binding signal of 1.29 enrichment R.

Consider B21, for which the binding signal stood at 0.918 enrichment R.

B22 registered a binding signal of 1.21 enrichment R.
